Data as given in patent publication US10993999B2, “Materials and methods for producing improved lentiviral vector particles” (IMMUNE DESIGN CORP., priority 2012, dated 2021).

System: HT1080 cells stably expressing the human DC-SIGN receptor
Assay: Transduction of HT1080 cells stably expressing human DC-SIGN (GFP expression)
Description: 293T cells were transfected with four separate plasmids encoding the lentiviral genome, the Gag/Pol, Rev, and the Envelope, respectively, using polyethyleneimine (PEI). Five hours after transfection, mix+media was removed. Media was added back to the vessel along with the indicated amount of mannosidase inhibitor (i.e., DMNJ, kifunensine, and swainsonine). 48 hours later, supernatant (containing vector) was collected and filtered with a 0.45 μm filter. […] The parental HT1080 cells (lacking DC-SIGN), were used as controls, and were not transduced by any of the vectors. […] The results are shown in FIGS. 1A (HT1080 expressing DC-SIGN) and 1B (parental HT1080).
293T cells were transfected with the plasmids described in Example 1 using PEI. Five hours after transfection, mix+media was removed. Media was added back to the vessel along with the indicated amount of Kifunensine (μg/ml), or with 400 μg/ml of DMNJ. 48 hours later supernatant (containing lentiviral vector particles) was collected and filtered with a 0.45 μm filter. […] The parental HT1080 cells, which are not transduced by the vector, were used as controls. […] The results are shown in FIGS. 2A (HT1080 cells expressing DC-SIGN) and 2B (parental HT1080 cells).
The results are illustrated in FIG. 4.

**Q.** What does the source list for `O=C1N[C@@H]2[C@@H](O)[C@@H](O)[C@H](O)[C@@H](CO)N2C1=O` [kifunensine]?
**A.** kifunensine concentration in production medium matching particles produced with 400 μg/ml DMNJ in infecting DC-SIGN-expressing cells: 0.125 µg/mL; kifunensine concentrations giving particles that infect DC-SIGN-expressing cells much more efficiently than 400 μg/ml DMNJ particles: exceeding 0.125 μg/ml; transfection of cells expressing DC-SIGN by particles produced in presence of the inhibitor (kifunensine 1 μg/ml vs DMNJ 400 μg/ml or swainsonine 10 μg/ml in production medium): significantly better; kifunensine concentration at which ability of particles to infect DC-SIGN-expressing cells peaks (titration of kifunensine): 0.25 µg/mL
